# Results taken from PubChem BioAssay AID504374 (National Center for Advancing Translational Sciences (NCATS), 2011).
# About 100 (6.7%) of roughly 1,500 compounds were called active. About 7% were inconclusive and are not listed. The call rests on the fitted dose curve; in most records, active means well fitted inhibition curve with a large enough effect; inconclusive means small, poorly fitted or top-dose-only effect, or effect the other way; inactive means flat fitted curve, though single readings scatter. The list shows a part of the results.
# Biological target: Runt-related transcription factor 1 (Homo sapiens) + Core-binding factor subunit beta (Homo sapiens) (UniProt Q01196+Q13951)
# Assay: qHTS Assay for Compounds Blocking the Interaction Between CBF-beta and RUNX1 for the Treatment of Acute Myeloid Leukemia: Hit Validation; further: nearly all actives have a fitted effect of over 60% in size
# Details: AlphaScreen CBFb-His/RUNX1-biotin binding; series mostly up to 59.8 µM; activity, negative = inhibition: at the top concentration
# Summary of the method: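 AlphaScreen proximity assay: His-tagged CBF-beta and biotinylated RUNX1 (30 nM each) preincubated 20 min, then compound 15 min, then nickel and streptavidin beads 90 min, all at room temperature; signal read at […]em 440 nm.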
# On the % scale 0 is the no-effect control and ±100 the full control effect; potency means the concentration at half of the fitted maximal effect.
# Chain of UniProt Q01196 (Q01196 whole entry, looked up): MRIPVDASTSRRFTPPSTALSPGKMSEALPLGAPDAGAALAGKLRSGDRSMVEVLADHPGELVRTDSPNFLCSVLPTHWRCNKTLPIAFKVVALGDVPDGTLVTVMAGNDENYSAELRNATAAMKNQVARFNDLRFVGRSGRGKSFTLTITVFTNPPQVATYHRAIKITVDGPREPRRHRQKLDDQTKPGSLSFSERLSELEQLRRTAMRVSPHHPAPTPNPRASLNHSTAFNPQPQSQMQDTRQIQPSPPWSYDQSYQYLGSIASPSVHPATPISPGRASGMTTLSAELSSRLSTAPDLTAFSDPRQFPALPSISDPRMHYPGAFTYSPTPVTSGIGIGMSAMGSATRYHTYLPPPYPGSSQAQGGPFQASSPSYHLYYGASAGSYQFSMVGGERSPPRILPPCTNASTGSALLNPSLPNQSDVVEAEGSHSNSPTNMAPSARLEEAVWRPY
# Chain of UniProt Q01196 (Q13951 whole entry, looked up): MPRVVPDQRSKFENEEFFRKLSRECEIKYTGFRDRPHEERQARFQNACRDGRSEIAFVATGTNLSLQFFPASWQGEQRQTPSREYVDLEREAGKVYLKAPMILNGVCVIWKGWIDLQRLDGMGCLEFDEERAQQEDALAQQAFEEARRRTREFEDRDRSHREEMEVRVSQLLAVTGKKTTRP
Structure (SMILES),"activity, negative = inhibition",Potency
Cc1c(-c2ccccc2)[n+](=O)c(-c2ccc(Br)cc2)c(C)n1[O-],inactive: -4.21%,–
Clc1cc(Cl)cc(Nc2ncnc(-n3cccc3)n2)c1,inactive: 3.42%,–
CC1=C(C(=O)c2ccccc2)C(c2ccc(O)cc2)NC(=S)N1 (stereo not given),inactive: -1.12%,–
O=C(CCCCCCCCCCC(=O)NCc1cccnc1)NCc1cccnc1,inactive: -0.989%,–
Cc1cc(C)cc(NC(=O)NCC(O)COc2ccc([N+](=O)[O-])cc2)c1 (stereo not given),inactive: 3.3%,–
Cc1onc(-c2c(F)cccc2Cl)c1C(=O)N=C(N)N1CC(C)OC(C)C1 (stereo not given),inactive: -0.719%,–
CN(C)/C=C(/C(=O)c1ccc(Cl)c(Cl)c1)c1nnnn1-c1ccccc1,inactive: -5.14%,–
Nc1ccccc1C(=O)NNC1=C(C(=O)C(F)(F)F)CCC1,inactive: -4.16%,–
CCOC(=O)Cc1csc(NC(=O)Cc2ccc(Br)cc2)n1,inactive: -4.76%,–
CCCCCc1ccc(S(=O)(=O)Nc2cc(C)ccn2)cc1,inactive: 0.248%,–
CCOC(=O)/C(=N/Nc1ccc(OC)cc1)N1CCCc2ccccc21,inactive: -28%,–
Cc1cc(=O)oc(C)c1C(=O)Nc1ccccc1F,inactive: -0.863%,–
CC(=O)c1ccc(N2CCc3ccccc3C2)c([N+](=O)[O-])c1,inactive: -30%,–
COc1ccc(CCNC(=S)N(C)C)cc1OC,inactive: -3.03%,–
Cc1onc(-c2ccccc2)c1NC(=O)N(Cc1ccccc1)C(C)C,inactive: -7%,–
C=COC(=O)c1sc2nc(C)cc(C)c2c1N,inactive: -7.98%,–
O=C(CN1CCCC1)OCCCC1CCCCC1,inactive: -2.64%,–
COc1ccc(C(O)Cn2cc([N+](=O)[O-])nc2C)cc1 (stereo not given),inactive: -2.61%,–
COC(=O)c1sccc1NC(=O)CC1C(=O)NCCN1C(=O)c1ccc(F)cc1 (stereo not given),inactive: -3.6%,–
Cc1ccc(C2N=C(N)Nc3nc(=O)c4ccccc4n32)cc1 (stereo not given),inactive: 3.03%,–
O=C(Nc1ccc(F)cc1)C(=O)c1c(O)[nH]c2ccc([N+](=O)[O-])cc12,inactive: -2.22%,–
CC1=[N+](C)N(c2ccccc2)C(=O)C1N=C/C=C/c1ccccc1 (stereo not given),inactive: 7.59%,–
O=C(c1ccccc1Cl)N1CCSCC1,inactive: 2.57%,–
CCOC(=O)c1c[nH]n2c(=O)cc(C)nc12,inactive: -0.182%,–

Structure (SMILES),"activity, negative = inhibition",Potency
Cc1csc2c(N3CCC(C(=O)O)CC3)ncnc12,inactive: -0.429%,–
Nc1nc(-c2ccccc2)c(N=Nc2cccc3ccccc23)s1,–,active: 1.94 µM
O=C(CSc1ccc(-c2ccccn2)nn1)NCc1ccccc1,–,active: 5.62 µM
CC(=O)Cc1nnn(-c2cc(C)on2)n1,inactive: -6.81%,–
Cc1nn(-c2ccccc2)nc1C(=O)NNC(=O)c1cccc2ccccc12,inactive: -4.94%,–
Cc1c(Cl)ccc2c(C(=O)O)cc(-c3ccccc3)nc12,inactive: -3.6%,–
Cc1cc(C)[n+]2[nH]c(N)c(N=Nc3ccccc3)c2n1,inactive: -7.09%,–
COc1ccc(/C=N/NC(=S)Nc2cc(C(F)(F)F)ccc2Cl)cc1,inactive: 10.6%,–
O=C(O)CCC(=O)N1CCN(c2ncccn2)CC1,inactive: -0.402%,–
CCCNc1cc(=S)nc(N)[nH]1,inactive: -1.61%,–
OCc1ncc(-c2ccccc2)s1,inactive: 0.332%,–
CC1c2ccsc2CCN1S(=O)(=O)c1cccs1 (stereo not given),inactive: -8.48%,–
CC(=O)Nc1ccc(NS(=O)(=O)c2ccc(C)cc2)cc1[N+](=O)[O-],inactive: -7.42%,–
NC1=NC(=Nc2ccc(S(N)(=O)=O)cc2)c2ccccc21,inactive: -0.969%,–
CCCOc1ccc(C(=O)c2ccccc2C(=O)O)cc1OCCC,inactive: -3.16%,–
CCN1CCN(S(=O)(=O)c2cc(C(=O)O)ccc2Cl)CC1,inactive: -3.71%,–
Oc1ccc(NC(=S)Nc2ccccc2)cc1,inactive: -3.44%,–
COC(=O)[C@H](CC(C)C)NC(=O)N1CCCCC1C (stereo not given in full),inactive: -2.71%,–
COc1ccc(-c2c(NC(=O)c3ccco3)n(-c3ccccc3)nc(C)c2=O)cc1,inactive: 1.47%,–
NNC(=O)c1ccc(COc2ccc([N+](=O)[O-])cc2)o1,inactive: -7.53%,–
CC(C)c1ccc(Nc2c([N+](=O)[O-])c(=O)n(C)c3ccccc23)cc1,inactive: -15.4%,–
CC(=O)c1ccc(-n2ccnc2)cc1,inactive: -2.62%,–
O=S(=O)(c1ccc(Cl)cc1)N1CCCN(c2ccc(C(F)(F)F)cn2)CC1,inactive: -0.843%,–
Cc1cc(C)n2cnnc2n1,inactive: -3.07%,–

Structure (SMILES),"activity, negative = inhibition",Potency
C/C(=N\Nc1ccc(C#N)cc1[N+](=O)[O-])c1ccc(O)cc1,inactive: -17.7%,–
COC(=O)c1ccc(/C=N/NC(=O)C(=O)NCC2CCCO2)cc1 (stereo not given),inactive: 7.62%,–
Clc1ccccc1-c1nnc2n1CCCCC2,inactive: -0.332%,–
FC(F)(F)c1cccc(-n2c(Cn3nnc4ccccc43)n[nH]c2=S)c1,inactive: 7.14%,–
COc1ccc(/C=N/NC(=O)c2ccc(Br)cc2)cc1CN1CCOCC1,inactive: 3.41%,–
COc1ccc(/C=N/NC(=O)Cn2ccnc2C)cc1OC,inactive: -9.74%,–
Cn1c(SCC(=O)NC(=O)Nc2ccccc2)nnc1-c1ccncc1,inactive: -3.55%,–
Cc1nn(C)c(Sc2ccccn2)c1[N+](=O)[O-],inactive: 3.06%,–
O=c1ccn(CCCBr)c(=O)[nH]1,inactive: 3.17%,–
CN(C)NC(=S)NC1CCS(=O)(=O)C1 (stereo not given),inactive: 1.34%,–
CCCc1ccc(OCc2ccccc2)c2c(=O)cc(C(=O)OCC)oc12,inactive: -0.456%,–
CCCN(c1ccc(C)cc1)c1nc(=O)c2cccnc2s1,inactive: -0.704%,–
Cc1cc(NC(=O)CSc2nc3ccccc3[nH]2)n(-c2ccccc2)n1,inactive: -1.36%,–
Cc1oc(S(=O)(=O)N2CCCCC2)cc1NC(=O)Nc1ccc(F)cc1,inactive: -4.08%,–
Cc1onc(-c2ccccc2)c1C(=O)NNC(=S)NC(=O)c1ccc2c(c1)OCO2,inactive: -5.8%,–
CC(C)(C)C(=O)Nc1nc(NC(=O)C(C)(C)C)nc(-c2ccccc2Cl)n1,inactive: 7.81%,–
O=C(O)CCC1(c2ccccc2)NC(=O)NC1=O (stereo not given),inactive: -3.65%,–
COC(=O)CC1C(=O)NCCN1C(=S)Nc1ccc(F)cc1 (stereo not given),inactive: 0.286%,–
CC(C)CCNc1nc(N)c([N+](=O)[O-])c(NCCO)n1,inactive: -8.74%,–
CCCC1C2C(=O)N(c3cccc(C)c3)C(=O)C2ON1c1ccccc1 (stereo not given),inactive: -0.96%,–
COc1ccccc1N1C(=O)CC(Sc2ccccc2N)C1=O (stereo not given),inactive: 0.805%,–
Cc1cccc(-c2n[nH]c(=S)n2/N=C/c2ccco2)c1,inactive: -6.05%,–
COc1ccccc1NC(=S)NCC1CCC(CNC(=S)Nc2ccccc2OC)CC1 (stereo not given),inactive: -2.72%,–
Cc1cnc(NS(=O)(=O)c2ccccc2)c(Br)c1,inactive: -4.09%,–

Structure (SMILES),"activity, negative = inhibition",Potency
Cc1cc(O)c(C(C)C)cc1N=Cc1ccccc1O,inactive: -0.406%,–
Cc1ccccc1C1NC(c2ccccc2C)C([N+](=O)[O-])C(C)(C)C1[N+](=O)[O-] (stereo not given),inactive: -6.05%,–
COC(=O)c1sccc1NC(=S)Nc1ccc(C)cc1,inactive: 5.69%,–
CC(C)OP(=O)(c1ccc(N(C)C)cc1)C(O)c1cccnc1 (stereo not given),inactive: -12.8%,–
CSCCC(NS(=O)(=O)/C=C/c1ccccc1)C(=O)NCCc1ccc(S(N)(=O)=O)cc1 (stereo not given),inactive: -23.3%,–
Cn1c(=O)c([N+](=O)[O-])c(NCC2CCCO2)c2ccccc21 (stereo not given),inactive: -0.834%,–
CCCN(CCC)c1ccc(/C=C/c2ccc3cc(OCC)ccc3n2)cc1,inactive: 3.7%,–
N#Cc1c(Cl)cccc1N1CCC(C(N)=O)CC1,inactive: -17.5%,–
CC1Cc2cc(/C=C3/SC(=S)N(C)C3=O)ccc2O1 (stereo not given),inactive: -8.24%,–
Cc1sc(NC(=O)CN2CCOCC2)c(C#N)c1C,inactive: -16%,–
CC(C)CC(=O)NC(=S)Nc1ccc(CN2CCOCC2)cc1,inactive: 5.97%,–
Cc1ccc(N2CC(c3nc4ccccc4n3C)CC2=O)cc1 (stereo not given),inactive: 0.961%,–
COc1ccc(Oc2ncccc2[N+](=O)[O-])cc1,inactive: -4.02%,–
COC(=O)c1ccc(OC)c(OC)c1Cl,inactive: -1.98%,–
C=CCn1c(-c2sc3nc(C)cc(C)c3c2N)n[nH]c1=S,inactive: -14.4%,–
CCOC(=O)c1cnc2c(F)ccc(F)c2c1Sc1ccccc1,inactive: -4.51%,–
c1ccc(CSc2nc3ncncc3[nH]2)cc1,inactive: -2.45%,–
O=C(/C=C/c1cn(CC(O)CN2CCOCC2)c2ccccc12)c1cccs1 (stereo not given),inactive: 2.26%,–
Cc1c([N+](=O)[O-])c(C/C=N/O)nn1C,inactive: -8.45%,–
COc1cc(/C=N\NC(=O)CNC(=O)C(c2ccccc2)c2ccccc2)ccc1O,inactive: 1.14%,–
N#CC(C#N)=Cc1ccc(OC(=O)c2ccccn2)cc1,–,active: 6.12 µM
CCOC(=O)COc1ccc2c(=O)cc(-c3ccccc3)oc2c1,inactive: -2.66%,–
O=C(CCl)NC1(C(F)(F)F)C(=O)Nc2c1c(=O)[nH]c(=O)n2-c1ccccc1 (stereo not given),inactive: -1.75%,–
O=C(NCCc1ccc(Cl)cc1)Nc1ccc(Cl)cc1,inactive: 1.15%,–

Structure (SMILES),"activity, negative = inhibition",Potency
CNC(=O)n1cc(C)c(-c2cccs2)n1,inactive: -1.1%,–
COC(=O)c1ccc(S(=O)(=O)NCc2ccco2)n1C,inactive: -5.37%,–
CC1(C)Cc2c(c(=S)nc(-c3ccccc3)n2Cc2cccnc2)CO1,inactive: -3.11%,–
Cc1ccc(C[n+]2cc(-c3ccc(Cl)cc3)n3c2CCC3)cc1,inactive: -2.88%,–
CCOC(=O)NC1=NCC(C)S1 (stereo not given),inactive: -9.33%,–
COc1cc(-c2noc(C)n2)cc(OC)c1OC,inactive: -0.677%,–
COc1ccc(-c2nc(-c3cccnc3)no2)cc1OC,inactive: -4.88%,–
O=C(O)c1ccc(S(=O)(=O)Nc2cccc(CP(=O)(c3ccccc3)c3ccccc3)c2)cc1,inactive: -1.73%,–
COC(=O)C1=C(C)Nc2c(c(=O)n(C)c(=O)n2C)C1c1cccc(O)c1 (stereo not given),inactive: -2.32%,–
N#CCc1cnc2ccccc2n1,inactive: -24.4%,–
Cc1ccc(CNc2nc(N)c([N+](=O)[O-])c(NCCO)n2)cc1,inactive: -6.25%,–
CC(C)N1CN(c2ccccc2)C(=S)N(c2ccccc2)C1,inactive: 5.92%,–
CCN(CC)c1ncc(C#N)c(N)n1,inactive: -6.57%,–
CCN(CC)S(=O)(=O)c1cccc(C(=O)N/N=C2\CCCC(=O)C2)c1,inactive: -2.55%,–
Clc1ccc(-c2ccccc2)nn1,inactive: -1.75%,–
Cc1nn(C)c(C)c1NC(=O)/C(C#N)=C\N(C)C,inactive: -2.86%,–
CC(C)(C)c1ccc(CCC2OCC(CN3CCOCC3)O2)cc1 (stereo not given),inactive: 1.96%,–
Cn1c(=O)c2cc3ccc(Cl)cc3nc2n(C)c1=O,inactive: 1.09%,–
O=c1c2cc(-c3ccccc3)sc2nc2n1N=C(c1ccccc1)CS2,inactive: -6.28%,–
CCn1c(SCC(=O)Nc2c(C#N)cnn2-c2ccccc2)nnc1-c1cccs1,inactive: -5.3%,–
Cc1ccc(C#CC(C)(O)C(C)(C)C)cn1 (stereo not given),inactive: -2.64%,–
COc1ccc(CN2CCOC2=O)cc1OC,inactive: -4.99%,–
O=C(CN1CCCc2ccccc21)N1CCc2ccccc21,inactive: 7.88%,–
Cc1cc(NC(=O)CN2CCOCC2)n(-c2ccccc2)n1,inactive: -1.1%,–
